Measurements taken from publication PMC7671991.
No constants are given. Whether binding was seen depends on the method and setting. Some binding calls cover weakened binding; strength is not graded here. Tags and fused reporters may be left off the sequences shown. One block for each binder: values may come before it.

The chains behind the UniProt entries cited, without tags or fusion partners.
UniProt Q92624: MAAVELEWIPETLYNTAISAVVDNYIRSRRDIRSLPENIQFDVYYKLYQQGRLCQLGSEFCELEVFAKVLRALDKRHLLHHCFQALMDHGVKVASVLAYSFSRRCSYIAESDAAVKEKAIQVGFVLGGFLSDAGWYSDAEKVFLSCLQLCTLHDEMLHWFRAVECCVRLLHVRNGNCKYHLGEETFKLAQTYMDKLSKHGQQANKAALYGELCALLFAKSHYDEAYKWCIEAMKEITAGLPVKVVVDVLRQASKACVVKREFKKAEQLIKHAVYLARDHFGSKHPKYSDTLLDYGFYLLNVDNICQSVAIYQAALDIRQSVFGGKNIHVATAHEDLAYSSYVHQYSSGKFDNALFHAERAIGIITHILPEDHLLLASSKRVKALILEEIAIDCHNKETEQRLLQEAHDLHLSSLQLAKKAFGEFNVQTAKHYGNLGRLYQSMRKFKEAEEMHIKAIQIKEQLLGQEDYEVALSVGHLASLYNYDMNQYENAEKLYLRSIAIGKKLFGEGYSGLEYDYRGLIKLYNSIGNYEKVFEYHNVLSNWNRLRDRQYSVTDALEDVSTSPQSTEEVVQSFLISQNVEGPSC

Molecular target: LexA BD-PAT1a full-length (protein interacting with APP tail 1a) (human) (UniProt Q92624)
Test: two-hybrid; LexA BD baits (pHybLex/Zeo) and GAL4 AD preys (pPC86) in yeast L40; growth on selection medium lacking histidine with 20 mM 3-aminotriazole; screen of an adult mouse brain cDNA library and retransformation of the isolated clones

B3: GAL4 AD-RME-6 (561-1170) (receptor mediated endocytosis-6 = Gapvd1) (domain or fragment, UniProt Q6PAR5 561-1170)
chain: KTLRFSLCSDNLEGISEGPSNRSNSVSSLDLEGESVSELGAGPSGSNGVEALQLLEHEQATTQDNLDDKLRKFEIRDMMGLTDDRDISETVSETWSTDVLGSDFDPNVDEDRLQEIAGAAAENVLGSLLCLPGSGSVLLDPCTGSTISETTSEAWSVEVLPSDSEAPDLKQEERLQELESCSGLGSTSDDTDVREVSSRPSTPGLSVVSGISATSEDIPNKIEDLRSECSSDFGGKDSVTSPDMDDIAHGAHQLTSPPSQSESLLAMFDPLSSHEGASAVVRPKVHYARPSHPPPDPPILEGAVGGNEARLPNFGSHVLTAAEMEAFKQRHSYPERLVRSRSSDIVSSVRRPMSDPSWNRRPGNEELPPAAATGATSLVAAPHSSSSSPSKDSSRGETEERKDSDDERSDRSRPWWRKRFVSAMPKAPIPFRKKEKQEKDKDDLGPDRFSTLTDEPSPRLSAQAQVAEDILDKYRNAIKRTSPSEGAMANDESAEVMGDGESAHDSPREEALQNISADDLPDSASQAAHPQDSAFSYRDVKKKLRLALCSADSVAFPVLTHSTRNGLPDHTDPEDNEIVCFLKVQIAEAINLQDKSLMAQLQETMRCVCR
binding: binds

B4: GAL4 AD-Krba1 (514-1044) (KRAB-A domain containing 1) (domain or fragment, UniProt Q6NXZ1-1 514-1043)
chain: QAAWPCSSAVNRGLKRTEPRNWTGDREGLRGEASEPPHLRQRPGEVPSRSLHQDSPQTCTSTCHQVTTRPGTWQWPQEETATMPSPLHRLENSLRGILPVRPLRFTCVTGPGPSPSPCSSSSFSSSDGEDLRPEPAFWQSPLQQKDQPPSCKDPVRLCPVSGASPRVNSNSCSAEDRERTEPRDCSSLSAGRAEEKPHPPRREDGAERTRQPGPVTNAEGKGAAAGHPSPAPQLEEKPEPKGTEDSRDLEPGHRPPSAAARTQGKLLSGDPPESPSKSPLPTTVLSKWSPTSLQPPCPCGRSLQQELHNLGTALTDKLDRLAAALAGLTQEVATMKTQMDQLRRHPRSLGPKGQGSWQLALPQRPRWVNRLGHRHLPYWRQKGPTRPRPKILRTQAEGCKTSDRPGLSRGKGSLVPQLPPEASLVESSRPTCSSSQQISSTPGGHTVLTAHPPLEHTACHQNPLSPSVPTSVQVPLVASPATSADTEPPAARVAAISIPNQPKEPDSLLGEALSRDLWGGDHRDPRWGAH
binding: binds

The next lines start with the values.

binding: binds
B1: GAL4 AD-sf3b155 (1-598) (splicing factor 3b, subunit 1) (domain or fragment, UniProt Q99NB9 1-598)
chain: MAKIAKTHEDIEAQIREIQGKKAALDEAQGVGLDSTGYYDQEIYGGSDSRFAGYVTSIAATELEDDDDDYSSSTSLLGQKKPGYHAPVALLNDIPQSTEQYDPFAEHRPPKIADREDEYKKHRRTMIISPERLDPFADGGKTPDPKMNARTYMDVMREQHLTKEEREIRQQLAEKAKAGELKVVNGAAASQPPSKRKRRWDQTADQTPGATPKKLSSWDQAETPGHTPSLRWDETPGRAKGSETPGATPGSKIWDPTPSHTPAGAATPGRGDTPGHATPGHGGATSSARKNRWDETPKTERDTPGHGSGWAETPRTDRGGDSIGETPTPGASKRKSRWDETPASQMGGSTPVLTPGKTPIGTPAMNMATPTPGHIMSMTPEQLQAWRWEREIDERNRPLSDEELDAMFPEGYKVLPPPAGYVPIRTPARKLTATPTPLGGMTGFHMQTEDRTMKSVNDQPSGNLPFLKPDDIQYFDKLLVDVDESTLSPEEQKERKIMKLLLKIKNGTPPMRKAALRQITDKAREFGAGPLFNQILPLLMSPTLEDQERHLLVKVIDRILYKLDDLVRPYVHKILVVIEPLLIDEDYYARVEGREIIS

binding: no binding
B2: GAL4 AD-Snapin (1-45) (domain or fragment, UniProt Q9Z266 1-45)
chain: MAAAGSAAVSGAGTPVAGPTGRDLFAEGLLEFLRPAVQQLDSHVH
